B1: Human PAD4 R8E mutant (enzyme)
chain: not shown
notes: human peptidylarginine deiminase 4 (PAD4) in pQE30; source: E. coli JM109, purified (Ni-NTA)
B2: Human PAD4 R8L mutant (enzyme)
chain: not shown
notes: as for B1
B3: Human PAD4 R8A mutant (enzyme)
chain: not shown
notes: as for B1
B4: Human PAD4 D273A/R544A double mutant (enzyme)
chain: not shown
notes: as for B1
B5: Human PAD4 R8K mutant (enzyme)
chain: not shown
notes: as for B1
B6: Human PAD4 Y435A mutant (enzyme)
chain: not shown
B7: Human PAD4 Y237A mutant (enzyme)
chain: not shown
notes: as for B1
B8: Human PAD4 Y435N mutant (enzyme)
chain: not shown
notes: as for B1
B9: Human PAD4 E281A mutant (enzyme)
chain: not shown
notes: as for B1
B10: Human PAD4 Y237A/E281A double mutant (enzyme)
chain: not shown
notes: as for B1
B11: Human PAD4 D547E mutant (enzyme)
chain: not shown
notes: as for B1
B12: Human PAD4 R8A/D547A double mutant (enzyme)
chain: not shown
notes: as for B1
B13: Human PAD4 D547A mutant (enzyme)
chain: not shown
notes: as for B1
B14: Human PAD4 R8H mutant (enzyme)
chain: not shown
notes: as for B1
B15: Human PAD4 R8Q mutant (enzyme)
chain: not shown
notes: as for B1
B16: Human PAD4 D547N mutant (enzyme)
chain: not shown
notes: as for B1
B17: Human PAD4 R8E/D547E double mutant (enzyme)
chain: not shown
notes: as for B1

How the values were obtained:
[1] = biological target: the molecule itself; assay: cell-based or functional assay
[2] = biological target: the molecule itself; assay: AUC; sedimentation velocity, 0.1, 0.3 and 1.0 mg/mL; 50 mM Tris-HCl, 250 mM NaCl, pH 7.6, 20°C, with 10 mM Ca2+; dimer to monomers
[3] = biological target: the molecule itself; assay: AUC; sedimentation velocity, 0.1, 0.3 and 1 mg/ml fitted globally (SEDPHAT, monomer-dimer equilibrium model); 50 mM Tris-HCl, 250 mM NaCl, pH 7.6, 20°C, without Ca2+; dimer to monomers

Protein	k cat of the PAD4 enzyme assay (BAEE substrate, coupled to glutamate dehydrogenase) [1]	Kd [2]	Kd [3]	stoichiometry N [3]
B1	7.3 s⁻¹	22.3 ± 0.12 µM	45.6 ± 0.37 µM	–
B2	5.3 s⁻¹	–	16.8 ± 0.14 µM	–
B3	12.2 s⁻¹	–	9.3 ± 0.08 µM	2
B4	–	–	0.68 ± 0.006 µM	2
B5	10.8 s⁻¹	7.8 ± 0.08 µM	10.2 ± 0.11 µM	2
B6	5.9 s⁻¹	–	–	–
B7	–	–	0.29 ± 0.002 µM	2
B8	4 s⁻¹	19.8 ± 0.19 µM	33.8 ± 0.24 µM	–
B9	–	–	0.1 ± 0.001 µM	2
B10	–	–	0.1 ± 0.001 µM	2
B11	8.9 s⁻¹	–	11.2 ± 0.11 µM	2
B12	10.7 s⁻¹	–	3.9 ± 0.04 µM	2
B13	11.6 s⁻¹	–	6.4 ± 0.07 µM	2
B14	–	–	0.47 ± 0.005 µM	2
B15	12.2 s⁻¹	–	15.7 ± 0.14 µM	2
B16	12.2 s⁻¹	–	4.9 ± 0.05 µM	2
B17	3.3 s⁻¹	–	24 ± 0.23 µM	–

Source: PMC3120853, “Functional Role of Dimerization of Human Peptidylarginine Deiminase 4 (PAD4)” (PLoS ONE, 2011)
